Screen size: about 110,000 compounds; about 230 (0.21%) showed an effect of 50% or more. This is one part of the list.
What follows are compounds tested against DPAP1 (Plasmodium falciparum, UniProt Q8IIJ9) (assay: primary screen, percent inhibition; read by cleavage of a fluorogenic dipeptide substrate; higher = more effect of the substance).
Design: species or system P. falciparum D10 trophozoite lysates; single well
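Also: 30 min substrate incubation versus DMSO and 10 µM JCP410 controls.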

Chain of DPAP1 (Q8IIJ9 whole entry, looked up): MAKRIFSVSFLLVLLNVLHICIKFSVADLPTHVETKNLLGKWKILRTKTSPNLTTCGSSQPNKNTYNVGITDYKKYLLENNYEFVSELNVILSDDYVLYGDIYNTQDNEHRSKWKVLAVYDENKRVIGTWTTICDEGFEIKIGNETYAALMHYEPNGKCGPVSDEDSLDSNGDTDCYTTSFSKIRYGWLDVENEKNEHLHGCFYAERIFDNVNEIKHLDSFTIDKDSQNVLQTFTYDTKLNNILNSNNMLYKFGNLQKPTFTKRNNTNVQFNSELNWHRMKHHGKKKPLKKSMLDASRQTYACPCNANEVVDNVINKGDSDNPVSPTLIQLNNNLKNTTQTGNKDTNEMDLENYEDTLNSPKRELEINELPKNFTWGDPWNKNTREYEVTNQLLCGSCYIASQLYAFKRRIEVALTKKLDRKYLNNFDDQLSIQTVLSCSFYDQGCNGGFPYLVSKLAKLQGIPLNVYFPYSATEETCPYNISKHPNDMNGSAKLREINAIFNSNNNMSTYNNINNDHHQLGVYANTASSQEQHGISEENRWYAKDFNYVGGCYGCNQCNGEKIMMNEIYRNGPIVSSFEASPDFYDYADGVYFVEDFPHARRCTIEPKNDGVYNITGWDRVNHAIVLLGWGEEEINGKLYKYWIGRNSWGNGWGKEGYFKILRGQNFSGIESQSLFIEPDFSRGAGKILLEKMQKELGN

Question: With `N#Cc1c(-c2cccs2)cc(-c2ccccc2)nc1SCC(=O)NC1CC1` as the compound, how does the “% Inhibition @ 10 uM” value read?
Answer: The value was 3.19%.

Question: Which “% Inhibition @ 10 uM” value does the source give for `C=CCOc1ccc(C2CC(=O)OC3=C2C(=O)CC(C)(C)C3)cc1` (stereo not shown) here?
Answer: Its value is -5.96%.

Question: How did the “% Inhibition @ 10 uM” value turn out when `FC(F)(F)c1cccc(N2CCN(Cc3ccoc3)CC2)c1` was run?
Answer: Its value is 5.42%.

Question: `COc1ccc(/C=C/C(O)=C2C(=O)c3ccccc3C2=O)cc1` was tested. Which “% Inhibition @ 10 uM” value did it give?
Answer: Its value is -3.98%.

Question: With `NC(=O)COc1ccc(C2c3c(oc4ccccc4c3=O)C(=O)N2c2nncs2)cc1` (stereo not shown) as the compound, how does the “% Inhibition @ 10 uM” value read?
Answer: The value was -6.94%.

Question: Which “% Inhibition @ 10 uM” value does the source give for `O=C(O)c1cc(C23CC4CC(CC(C4)C2)C3)nc2ccc(Br)cc12` here?
Answer: The value was 12%.

Question: `Cc1ccc(NC(=O)c2cccc([N+](=O)[O-])c2)cc1Cl` was tested. Which “% Inhibition @ 10 uM” value did it give?
Answer: Its value is -4.5%.

Question: `CCc1nc2cccnc2n1-c1ccc(CC(=O)NCc2ccco2)cc1` was tested. Which “% Inhibition @ 10 uM” value did it give?
Answer: The value was -0.0668%.

Question: With `O=C(O)C1Cc2c([nH]c3ccccc23)C(c2ccccc2Br)N1` (stereo not shown) as the compound, how does the “% Inhibition @ 10 uM” value read?
Answer: Its value is -8.11%.

Question: With `COc1ccc(S(=O)(=O)NCCSCc2cccc(C)c2)cc1OC` as the compound, how does the “% Inhibition @ 10 uM” value read?
Answer: Its value is -1.33%.

Question: How did the “% Inhibition @ 10 uM” value turn out when `CN1C(=O)CC(N2CCN(c3ccc(F)cc3)CC2)C1=O` (stereo not shown) was run?
Answer: The value was -0.268%.

Question: For `C=Cc1ccc(Cn2c(C)c(CNCCc3ccccc3OC)c(C(=O)O)c2C)cc1`, which “% Inhibition @ 10 uM” value is on record?
Answer: Its value is 1.41%.

Question: `Cc1ccc(/C=C2/C(=O)c3ccc(C(=O)O)cc3C2=O)o1` was tested. Which “% Inhibition @ 10 uM” value did it give?
Answer: Its value is 5%.

Question: For `COc1ccc(-c2noc(CSc3nnc(-c4ccncc4)n3CC(C)C)n2)cc1OC`, which “% Inhibition @ 10 uM” value is on record?
Answer: Its value is -0.45%.

Question: `Cc1nnc(NC(C)C)c2c1nnn2Cc1ccc(F)cc1` was tested. Which “% Inhibition @ 10 uM” value did it give?
Answer: Its value is 0.00706%.

Question: Which “% Inhibition @ 10 uM” value does the source give for `CCOCCCNC(=O)c1ccc(CS(=O)(=O)c2ccccc2OC)o1` here?
Answer: Its value is -1.28%.

Question: `Cc1ccc(C)c(CN2CCCN(c3ncnc4onc(-c5ccc(F)cc5)c34)C2)c1` was tested. Which “% Inhibition @ 10 uM” value did it give?
Answer: The value was 0.0057%.

Question: How did the “% Inhibition @ 10 uM” value turn out when `Nc1sc2c(c1C(=O)c1ccccc1)CCCC2` was run?
Answer: The value was 21.4%.

Question: How did the “% Inhibition @ 10 uM” value turn out when `C=CCn1c(-c2ccccc2)cs/c1=N\c1ccc(O)cc1` was run?
Answer: Its value is -2.99%.

Question: With `COC(=O)C1=C(N)OC2=C(C(=O)CCC2)C1c1cccnc1` (stereo not shown) as the compound, how does the “% Inhibition @ 10 uM” value read?
Answer: The value was 18.5%.

Question: How did the “% Inhibition @ 10 uM” value turn out when `Cc1ccc(-c2nc3ccccc3[nH]2)cn1` was run?
Answer: The value was 3.01%.

Question: For `O=C(Cn1ncn2c(cc3ccccc32)c1=O)NCCCc1ccccc1`, which “% Inhibition @ 10 uM” value is on record?
Answer: Its value is 0.0198%.

Question: With `CCOc1cc(Cl)c(S(=O)(=O)N2CCN(C)CC2)cc1Cl` as the compound, how does the “% Inhibition @ 10 uM” value read?
Answer: Its value is -1.51%.

Question: For `COC(=O)c1[nH]c2c(c1C)C(=O)CC(c1ccccc1)C2` (stereo not shown), which “% Inhibition @ 10 uM” value is on record?
Answer: The value was 6.28%.

Question: For `O=C(O)c1cccc2c1-c1ccccc1C2=O`, which “% Inhibition @ 10 uM” value is on record?
Answer: The value was -8.6%.

Question: `COc1cc(C2C(C#N)=C(N)OC3=C2C(=O)CC(C)(C)C3)ccc1OCC(N)=O` (stereo not shown) was tested. Which “% Inhibition @ 10 uM” value did it give?
Answer: The value was 2.56%.

Question: `COc1cccc(C2C3=C(NCCN=C3c3ccccc3)C(=O)N2c2ccccc2)c1` (stereo not shown) was tested. Which “% Inhibition @ 10 uM” value did it give?
Answer: The value was 1.67%.

Question: For `Cc1nc2ncnn2c(O)c1NC(=O)CCc1ccccc1`, which “% Inhibition @ 10 uM” value is on record?
Answer: Its value is 2.97%.

Question: How did the “% Inhibition @ 10 uM” value turn out when `OCC1CCCN(Cc2ccc(-c3ccccc3)cc2)C1` (stereo not shown) was run?
Answer: Its value is 0.273%.

Question: `O=C(CC1(O)C(=O)N(Cc2cccc3ccccc23)c2ccccc21)c1ccccc1O` (stereo not shown) was tested. Which “% Inhibition @ 10 uM” value did it give?
Answer: Its value is -4.68%.

Question: `COc1ccccc1[C@@H](C)C[C@H](NC(=O)OC(C)(C)C)C(=O)NCC#N` was tested. Which “% Inhibition @ 10 uM” value did it give?
Answer: Its value is -4.82%.

Question: How did the “% Inhibition @ 10 uM” value turn out when `Nc1ncn(C(=O)c2ccccc2)n1` was run?
Answer: Its value is 2.09%.

Question: `CC(C)(Cc1nc2ccccc2[nH]1)c1nc2ccccc2[nH]1` was tested. Which “% Inhibition @ 10 uM” value did it give?
Answer: The value was 4.94%.

Question: For `CCCC/C(=N\c1ccccc1O)C1=C(O)CC(C)(C)CC1=O`, which “% Inhibition @ 10 uM” value is on record?
Answer: Its value is -5.07%.

Question: `CC(C)CC1C(C#N)=C(N)OC2=C1C(=O)CC(C)(C)C2` (stereo not shown) was tested. Which “% Inhibition @ 10 uM” value did it give?
Answer: The value was 2.76%.

Question: For `CCC(C(=O)NCCc1c[nH]c2ccccc12)n1nc(C)n2c(cc3occc32)c1=O` (stereo not shown), which “% Inhibition @ 10 uM” value is on record?
Answer: The value was -5.63%.

Question: For `COc1cc2c(cc1OC)CN(Cc1ccc(F)cc1F)CC2`, which “% Inhibition @ 10 uM” value is on record?
Answer: Its value is -6.47%.

Question: `CCCCN(CC)C(=O)c1cn(CC)c(=O)c2cc(OC)c(OC)cc12` was tested. Which “% Inhibition @ 10 uM” value did it give?
Answer: Its value is -0.228%.

Question: How did the “% Inhibition @ 10 uM” value turn out when `COc1ccccc1CNC(=O)CSCc1cnn(-c2ccccc2)c1-n1cccc1` was run?
Answer: Its value is -2.85%.

Question: `O=C(Nc1ccccc1Oc1ccccc1)c1ccc(Br)o1` was tested. Which “% Inhibition @ 10 uM” value did it give?
Answer: Its value is -0.0555%.

Question: `O=C(Cn1c(=O)c2cccn2c2cccnc21)NCCC1=CCCCC1` was tested. Which “% Inhibition @ 10 uM” value did it give?
Answer: Its value is -7.24%.

Question: `c1ccc(-c2ccc3c(c2)c2c4n3CCN=C4CCC2)cc1` was tested. Which “% Inhibition @ 10 uM” value did it give?
Answer: The value was -1.22%.

Question: `CC(C)c1ccc(-n2nnc(-c3nc(-c4ccccc4F)no3)c2N)cc1` was tested. Which “% Inhibition @ 10 uM” value did it give?
Answer: The value was 0.331%.

Question: Which “% Inhibition @ 10 uM” value does the source give for `Brc1ccc(-c2nc(NCc3ccccc3)cc(-c3ccccc3)n2)cc1` here?
Answer: The value was -1.48%.

Question: `COc1ccc(CN2CCN(Cc3ccc(OC)c(OC)c3)CC2)cc1Br` was tested. Which “% Inhibition @ 10 uM” value did it give?
Answer: The value was 0.408%.

Question: For `COc1ccc(Cc2nc(COc3ccc(Cl)c(C)c3)no2)cc1OC`, which “% Inhibition @ 10 uM” value is on record?
Answer: The value was -2.71%.

Question: `COc1ccc(-c2cc(C(F)F)n3ncc(C(=O)N4CCOCC4)c3n2)cc1` was tested. Which “% Inhibition @ 10 uM” value did it give?
Answer: The value was 3.69%.

Question: With `C=CCOc1nc(N2CCCCC2)nc(N2CCCCC2)n1` as the compound, how does the “% Inhibition @ 10 uM” value read?
Answer: The value was 3.66%.

Question: For `CC(=O)Nc1cccc(NC(C)=O)n1`, which “% Inhibition @ 10 uM” value is on record?
Answer: The value was 4.31%.

Question: For `CCOC(=O)c1c(C)[nH]c(C)c1S(=O)(=O)NCC(=O)NCc1cc(C)ccc1C`, which “% Inhibition @ 10 uM” value is on record?
Answer: The value was -3.76%.

Question: How did the “% Inhibition @ 10 uM” value turn out when `CCCN1CCN(C(=O)CCc2c(C)nc3c(c2C)c(=O)n(C)c(=O)n3C)CC1` was run?
Answer: Its value is 0.44%.

Question: How did the “% Inhibition @ 10 uM” value turn out when `CCOP(=O)(OCC)C(Nc1ccc(Br)cc1)c1ccc(Cl)cc1` (stereo not shown) was run?
Answer: The value was 1.7%.

Question: `CCOC(=O)C(C)N1C(=O)S/C(=C\c2cc(Br)c(OC)c(OC)c2)C1=O` (stereo not shown) was tested. Which “% Inhibition @ 10 uM” value did it give?
Answer: Its value is -4.75%.

Question: `Cc1oc(-c2ccccc2F)nc1CN1CCC(C(=O)NCc2cccnc2)CC1` was tested. Which “% Inhibition @ 10 uM” value did it give?
Answer: Its value is -8.65%.

Question: Which “% Inhibition @ 10 uM” value does the source give for `Cc1cccn2cc(CSc3nc4ccccc4[nH]3)nc12` here?
Answer: The value was -0.303%.

Question: How did the “% Inhibition @ 10 uM” value turn out when `Cc1nc(NCCc2ccc3c(c2)OCCO3)c2cc(-c3ccccc3)sc2n1` was run?
Answer: The value was 0.147%.

Question: With `CC(C)c1ccc(C2=CC(c3ccccc3OC(F)F)n3ncnc3N2)cc1` (stereo not shown) as the compound, how does the “% Inhibition @ 10 uM” value read?
Answer: Its value is 0.219%.

Question: How did the “% Inhibition @ 10 uM” value turn out when `CN(C)CC(O)Cn1c2ccc(Cl)cc2c2cc(Cl)ccc21` (stereo not shown) was run?
Answer: Its value is 10.4%.

Question: How did the “% Inhibition @ 10 uM” value turn out when `Cc1ccc(C2C(C(=O)c3ccccc3)=C(O)C(=O)N2c2ncccn2)cc1` (stereo not shown) was run?
Answer: The value was -9.31%.

Question: Which “% Inhibition @ 10 uM” value does the source give for `COc1ccccc1C(=O)Nc1ccc2oc(-c3ccc(F)cc3)nc2c1` here?
Answer: The value was -5.4%.

Question: How did the “% Inhibition @ 10 uM” value turn out when `COc1ccc(CNc2nc3c(c(C(F)(F)F)n2)CCCCC3)cc1` was run?
Answer: Its value is -3.27%.

Question: With `COc1ccc(OC)c(CN2CCN(C(=O)c3ccc(OC)c(OC)c3)CC2)c1` as the compound, how does the “% Inhibition @ 10 uM” value read?
Answer: The value was -1.98%.

Question: With `CCc1ccc(CNC(=O)C2CC(=O)N(CCc3ccccc3)C2)cc1` (stereo not shown) as the compound, how does the “% Inhibition @ 10 uM” value read?
Answer: Its value is -1.79%.

Question: With `CC(NC(=O)C1(c2ccccc2)CCCC1)C1COc2ccccc2O1` (stereo not shown) as the compound, how does the “% Inhibition @ 10 uM” value read?
Answer: Its value is 0.685%.
